Source: the supplement of paper PMC3334620
Whole data set: some 33,000 sequences, median “E-score (-0.5 to 0.5)” near -0.04, cut for the highest 2% near 0.36. This is one part of the list.

Each sequence was assayed against T1, Hmlalpha2 (UniProt P0CY09) (assay: PBM E-score (8-mer binding enrichment) (E-score (-0.5 to 0.5)); higher = stronger / more preferred TF binding; most listed sequences are background and not binding sites). Settings: protein concentration: 200 nM; construct: GST-full length.
T1 sequence: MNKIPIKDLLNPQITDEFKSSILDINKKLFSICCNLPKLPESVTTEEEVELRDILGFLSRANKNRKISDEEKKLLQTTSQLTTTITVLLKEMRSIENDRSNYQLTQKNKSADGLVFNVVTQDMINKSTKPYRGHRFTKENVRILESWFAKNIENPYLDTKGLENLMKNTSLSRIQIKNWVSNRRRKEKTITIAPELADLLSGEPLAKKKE
In short: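 For each ungapped eight-base word taken together with its reverse complement, the Universal PBM Analysis Suite assigned an E-score. Binding data came from GST-tagged yeast transcription factors, applied at about 100-200 nM, on universal all-10-mer Agilent arrays made double-stranded by primer extension. Fluorescent anti-GST marked bound protein, and scans were normalised with masliner.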

Row | Sequence | PBM E-score
1 | AGTGGAGC | -0.0527
2 | TATGCCAA | 0.0267
3 | CCGGTGAA | -0.0442
4 | AGGTGGCA | -0.176
5 | CGGAGCTA | -0.0643
6 | AGGGAGTC | -0.262
7 | AAGGTCGT | -0.0856
8 | AAAGCCTC | -0.206
9 | GGATACCA | -0.134
10 | GAGAGTAC | 0.035
11 | GATACCGA | -0.166
12 | TACCTCGA | -0.0242
13 | CAGTAACG | 0.0654
14 | AACACAGT | 0.304
15 | TCCCATAA | -0.0459
16 | CGTTCAAG | -0.00861
17 | GGGCTGGA | -0.295
18 | ACAGTGGC | -0.0921
19 | GCAGAGGA | -0.141
20 | CATCTACG | 0.161
21 | AAGAGATC | -0.247
22 | AAACTCGC | -0.0609
23 | AGCCCCAC | -0.271
24 | CCACTTAA | 0.0174
25 | CCGCTTCC | -0.0908

Row | Sequence | PBM E-score
26 | ATTTACCA | 0.21
27 | ACAGTTGC | 0.0403
28 | AGGTGCTC | -0.322
29 | GGGGAGCA | -0.23
30 | CTGCAAAG | -0.0914
31 | AACCGGAG | -0.0784
32 | GCCGCCAC | -0.303
33 | CGGTAATC | -0.204
34 | CTATCCTA | -0.147
35 | CTCCACAC | -0.099
36 | ATGGTTAG | 0.138
37 | AGCATCCA | -0.249
38 | GCAAATCC | 0.0405
39 | CAGCTAAG | -0.114
40 | ACAACGTG | 0.306
41 | CTGAAGTA | -0.0277
42 | GGCTAGAC | -0.193
43 | CGGCAACG | -0.0873
44 | CTGCTTAA | 0.00947
45 | CCAGTTAG | -0.127
46 | CTGCCCAG | -0.229
47 | CCACCGCC | -0.217
48 | GAGACTCA | -0.206
49 | ATTTGGCA | 0.00676
50 | CCATTGCA | 0.0939

Row | Sequence | PBM E-score
51 | ACTTACTG | 0.00354
52 | CCGTAGCC | -0.307
53 | AGTTCTAC | 0.161
54 | ACCGACCG | -0.151
55 | CTCGAACA | 0.112
56 | CAATTGAC | 0.0543
57 | ACTCATGG | -0.156
58 | AGGGGCTG | -0.249
59 | ATTTCTTC | -0.0697
60 | AGATGAAG | -0.156
61 | GGCAACCA | -0.113
62 | GCCTGTTA | 0.139
63 | ACCGGGAA | -0.0305
64 | GTGACACA | 0.142
65 | CTATTCAA | 0.0647
66 | AGGGGTAC | -0.121
67 | GGGAGTAA | 0.0108
68 | ACTCATTG | -0.155
69 | AGCTTGGC | -0.0948
70 | AGCACGCG | 0.216
71 | CAGGCCAC | -0.181
72 | AGTAGATG | 0.136
73 | CGGGCCCG | -0.122
74 | CCGCTAAG | -0.0291
75 | AGCTCCGA | -0.0303

Row | Sequence | PBM E-score
76 | CAGACGCG | -0.0728
77 | GCCTTTGA | -0.126
78 | GTAGTTAA | 0.306
79 | ACTTAGGA | -0.0292
80 | AGAGCTGG | -0.168
81 | GGGGCCAA | -0.283
82 | GACTGTAA | 0.171
83 | GGAGCCCA | -0.345
84 | TACGGCTA | -0.0923
85 | AGCCTTCC | -0.271
86 | ATCGGTTC | -0.00097
87 | CAGATGAG | -0.0215
88 | CTCATGTC | 0.295
89 | GCAGGTGA | -0.126
90 | AACGGCTT | -0.239
91 | AGCCATGG | -0.101
92 | TAAACCGA | 0.0421
93 | AGCCCTGC | -0.139
94 | GTTCGTCA | -0.108
95 | AGGGCCAT | -0.193
96 | CGTGGGGA | -0.244
97 | CCGATCAC | 0.0381
98 | CTAGGGCC | -0.182
99 | GCTAAGAC | -0.143
100 | CCGTTGGC | -0.236

Row | Sequence | PBM E-score
101 | ATAAACGC | 0.185
102 | CAAGCTCG | -0.0355
103 | CTGTATCC | -0.105
104 | ATACCCTA | -0.0708
105 | CGTTGCAA | 0.0442
106 | AATCTCTA | 0.0749
107 | CACCGCCG | -0.288
108 | CAATATGA | 0.0361
109 | AGTAGACC | -0.149
110 | CACCCCTA | -0.306
111 | CTGCCTGC | -0.252
112 | CCGGAGTC | -0.0726
113 | GCTATAGA | -0.15
114 | CGGACCTC | -0.309
115 | GATGCGGC | -0.204
116 | AGTTTAAC | 0.197
117 | CGCTTGGC | -0.0931
118 | CGAGACTA | 0.0402
119 | GCAGGGGA | -0.311
120 | CGGAACGC | -0.025
121 | AGCCTGGC | -0.207
122 | GTAGCCCA | -0.0543
123 | TCGATGAA | 0.102
124 | ATCATCAA | 0.00119
125 | ATTCTCTC | -0.127

Row | Sequence | PBM E-score
126 | AAGTGAGA | -0.0616
127 | CGCTCGTA | -0.0486
128 | CTACAATA | 0.129
129 | TAACTGCA | 0.144
130 | GCTACAAC | -0.0124
131 | TAGCGGGA | -0.231
132 | AGTCGCTG | -0.0137
133 | TAAGTGGA | 0.0716
134 | ATTCAACC | -0.0524
135 | ACAGTAAG | 0.064
136 | CCGGAAGC | -0.244
137 | ATCTCCAA | 0.00965
138 | CGGTCTCA | -0.175
139 | GTCCCTCA | -0.269
140 | AGTTAAAT | 0.117
141 | GTCAAGCA | -0.164
142 | GGGCATGA | -0.214
143 | CTAATGGA | -0.263
144 | ACGAGGCT | 0.134
145 | CTATATTC | -0.164
146 | CCCCGATC | -0.348
147 | TAGGGGGA | -0.271
148 | TTTCAAAA | 0.17
149 | AACTGGTA | -0.144
150 | TCAGCAGA | -0.128

Row | Sequence | PBM E-score
151 | GTTCCGAA | -0.0934
152 | AGTACACT | 0.074
153 | AACGAGGT | 0.0369
154 | CCTCCGGA | -0.255
155 | GTGTTTTA | 0.355
156 | ATTAACCA | 0.0177
157 | AACACCAG | 0.0881
158 | CCGAGCAG | -0.118
159 | AGGGGGAC | -0.355
160 | ACCGCTTC | -0.219
161 | CCAGGTGA | -0.00929
162 | ATGGTATG | 0.136
163 | GTATCTTA | 0.186
164 | CCAAATAA | 0.126
165 | ACATGACA | 0.412
166 | AAATCAAG | -0.0515
167 | ACCTAACC | -0.0215
168 | CCAATCTC | 0.00324
169 | TCGGCAGA | -0.0187
170 | ACCCAACC | -0.136
171 | AAGAACTT | 0.144
172 | AGATGGAG | -0.0217
